{"source": "ChEMBL document CHEMBL4888484", "about": "“Replenishing the malaria drug discovery pipeline: Screening and hit evaluation of the MMV Hit Generation Library 1 (HGL1) against asexual blood stage Plasmodium falciparum ,using a nano luciferase reporter read-out” (2022)", "note": "In all, about 150,000 compounds went through this assay and about 540 (0.36%) showed an effect of 50% or more. The list shows a part of the results.", "data": [{"system": "Plasmodium falciparum", "test": "Primary screen in NF54 nanoGlo assay, in single point, at 2uM, 72h; a lower Z score goes with more inhibition", "format": "functional, Erythrocyte", "conditions": "timepoint 72 hour", "units": {"% Inhibition": "%"}, "values": [{"smiles": "Cc1nc(C)c(CN2CCC[C@H](c3cc(C(N)=O)[nH]n3)C2)s1", "% Inhibition": -8, "Z score": 0.87}, {"smiles": "COc1ccc([C@H]2[C@H](C(=O)NC3CCN(Cc4ccccc4)CC3)CCC(=O)N2C)cc1", "% Inhibition": 35, "Z score": -3.97}, {"smiles": "COc1cc(NC(=O)Cc2cscn2)c(C(=O)N2CCCCC2)cc1OC", "% Inhibition": -11, "Z score": 1.15}, {"smiles": "COc1ccccc1CNC(=O)C1CC(=O)N(C)C1c1cccnc1", "note": "(stereo not drawn)", "% Inhibition": -1, "Z score": 0.1}, {"smiles": "O=C(Nc1ccc(S(=O)(=O)N2CCc3ccccc32)cc1)N1CCCC1", "% Inhibition": -9, "Z score": 1.1}, {"smiles": "CS(=O)(=O)c1cc(NC(=O)c2ccccc2OCC2CC2)cc(C(=O)O)c1", "% Inhibition": -14, "Z score": 1.41}, {"smiles": "CN1C[C@@H](NC(=O)NCc2ccc(F)cc2)CC1=O", "% Inhibition": 8, "Z score": -1.1}, {"smiles": "COc1ccccc1NS(=O)(=O)c1ccc(-c2nnc(C3CC3)o2)o1", "% Inhibition": 2, "Z score": -0.27}, {"smiles": "NC(=O)c1ccc(CN2C(=O)NC3(CCCC3)C2=O)cc1", "% Inhibition": -14, "Z score": 2.07}, {"smiles": "O=S(=O)(C1CCOCC1)N1CCN(Cc2ccccc2)C2(CCCCC2)C1", "% Inhibition": -11, "Z score": 1.49}, {"smiles": "COC[C@H](NC(=O)c1ccc2c(c1)OCCO2)C1CC1", "% Inhibition": 10, "Z score": -0.98}, {"smiles": "CN1CCN(C(=O)CC[C@H]2CCCN(Cc3sc4ccccc4c3Cl)C2)CC1", "% Inhibition": -14, "Z score": 1.26}, {"smiles": "Cc1cnn(C[C@H](C)NCc2cnc(N3CCOCC3)nc2)c1", "% Inhibition": 6, "Z score": -0.92}, {"smiles": "Cc1cn(CCn2cnc(-c3ccccc3)c2-c2ccc3ccccc3n2)nn1", "% Inhibition": 4, "Z score": -0.51}, {"smiles": "O=C1c2ccccc2C(=O)N1Cc1ncc2ccccn12", "% Inhibition": 0, "Z score": 0.06}, {"smiles": "CCC(=O)Nc1ccc(N(C)C)c(CN(C[C@H]2CCCO2)C(C)=O)c1", "% Inhibition": 5, "Z score": -0.65}, {"smiles": "C=CCNC(=O)c1cccc(CN2C(=O)C[C@@H](c3ccc(F)cc3)NC2=O)c1", "% Inhibition": -7, "Z score": 0.82}, {"smiles": "CC(C)n1cnnc1CN(C)C1CCN(Cc2ccco2)CC1", "% Inhibition": 0, "Z score": -0.01}, {"smiles": "C[C@@H](CNC(=O)c1ncccc1Br)Nc1ccccc1", "% Inhibition": 6, "Z score": -0.85}, {"smiles": "CN(Cc1cscn1)C(=O)c1nn(Cc2ccccc2)c2c1CN(C(=O)c1ccnn1C)CC2", "% Inhibition": -9, "Z score": 1.18}, {"smiles": "COc1ccc(NC(=O)c2ccc3cc[nH]c3c2)cn1", "% Inhibition": 0, "Z score": 0.07}, {"smiles": "CCC=C(C)C(=O)N[C@@H](C)c1cc(OC)ccc1OC", "% Inhibition": -7, "Z score": 1.09}, {"smiles": "Cn1cc2c(n1)CCC[C@H]2C(=O)Nc1ccc(C(C)(C)C)cc1O", "% Inhibition": 4, "Z score": -0.49}, {"smiles": "CC(C)(C#N)C(=O)Nc1ccc(-c2nc3ccccc3s2)cn1", "% Inhibition": -23, "Z score": 2.11}, {"smiles": "CC(C)N1C2CCC1CN(CC(=O)NC(C)(C#N)C(C)C)CC2", "note": "(stereo not drawn)", "% Inhibition": -1, "Z score": 0.11}, {"smiles": "Cc1nnc(CC(=O)N2CCCc3c(C)c(F)cc(Cl)c32)o1", "% Inhibition": -15, "Z score": 1.92}, {"smiles": "Cc1cc(C(=O)NCc2cccnc2-n2ccnc2)cc2sc(N)nc12", "% Inhibition": -9, "Z score": 1.07}, {"smiles": "CCOC(=O)c1cc2n(n1)C[C@@](C)(C(=O)NC1CCCCCC1)N(c1ccc(NC(C)=O)cc1)C2=O", "% Inhibition": 0, "Z score": 0.09}, {"smiles": "CN(CCc1ccccn1)c1ncccc1CNc1ncccc1C(F)(F)F", "% Inhibition": -3, "Z score": 0.27}, {"smiles": "O=S(=O)(CC1CCCCC1)NCc1noc(-c2ccccc2)n1", "% Inhibition": -7, "Z score": 1.27}, {"smiles": "Cc1ccc2c(c1)C(C)(C)C(=O)N2CC(=O)N1CCN(c2ccc(Cl)cc2)CC1", "% Inhibition": -14, "Z score": 2.32}, {"smiles": "CC(C)Oc1ccc(CN2C[C@H]3CC[C@H]2C3)cc1CO", "% Inhibition": 6, "Z score": -1.25}, {"smiles": "CC(C)(C)c1ccn(C2(C(=O)O)CCN(C/C=C/c3ccco3)CC2)n1", "% Inhibition": -7, "Z score": 0.84}, {"smiles": "CC(C)(C)OC(=O)N1C[C@H](O)C[C@H]1c1n[nH]c(-c2ccccc2)n1", "% Inhibition": -6, "Z score": 0.62}, {"smiles": "CC1CCC(O)(CN2CCCN(CC3(O)CCC(C)CC3)CC2)CC1", "note": "(stereo not drawn)", "% Inhibition": -1, "Z score": 0.09}, {"smiles": "CN(Cc1ccc(N2CCOCC2)cc1)c1nccc2ccc(F)cc12", "% Inhibition": 5, "Z score": -0.59}, {"smiles": "CC(C)(CCNC(=O)OC(C)(C)C)NC(=O)C1=C[S@+]([O-])CCC1", "% Inhibition": -3, "Z score": 0.45}, {"smiles": "COCC(=O)N1CCN(S(=O)(=O)c2cccc3nonc23)CC1", "% Inhibition": 0, "Z score": 0.06}, {"smiles": "COC(=O)CN1CCc2onc(-c3cccc4ccccc34)c2C1", "% Inhibition": -1, "Z score": 0.16}, {"smiles": "NC(=O)N[C@@H]1C[C@H]1c1c(F)cccc1Cl", "% Inhibition": 2, "Z score": -0.29}, {"smiles": "CCc1nc2cc(-c3noc(Cc4ccc(C)cc4)n3)ccc2o1", "% Inhibition": -15, "Z score": 1.5}, {"smiles": "C[C@H](O)CN1CCn2c(cnc2C(F)(F)F)C1", "% Inhibition": -6, "Z score": 0.61}, {"smiles": "CCOC1(C)CCN(Cc2cnn(C)c2C(F)(F)F)CC1", "% Inhibition": 3, "Z score": -0.38}, {"smiles": "COCCn1nc(C)c(NCc2cc(C)oc2C)c1C", "% Inhibition": -5, "Z score": 0.77}, {"smiles": "COC(=O)[C@H](Nc1cnn(C(C)(C)C)c1)c1cccnc1", "% Inhibition": -10, "Z score": 1.48}, {"smiles": "CCN1C(=O)C[C@H](C(=O)Nc2ccc(-n3cncn3)nc2)[C@H]1c1nccn1CC", "% Inhibition": -7, "Z score": 1.13}, {"smiles": "COCCn1nc(C)c(CNC(=O)N2CCC(C(C)C)CC2)c1C", "% Inhibition": -5, "Z score": 0.67}, {"smiles": "O=c1[nH]ccn1CCN(CCO)C1CCCCC1", "% Inhibition": 11, "Z score": -1.37}, {"smiles": "O=C(O)c1ccc(C(=O)N(Cc2ccccc2F)C2CCC2)nc1", "% Inhibition": 1, "Z score": -0.14}, {"smiles": "CN(CCN1CC(c2ccccc2)(c2ccccc2)CCC1=O)S(C)(=O)=O", "% Inhibition": -6, "Z score": 0.72}, {"smiles": "CCn1ccnc1[C@H]1OCCC[C@@H]1NS(=O)(=O)N1CCCC1", "% Inhibition": 20, "Z score": -2.56}, {"smiles": "C[C@@H]1CC[C@H](CO)N1C(=O)C1CCc2cncn2C1", "note": "(stereo partly drawn)", "% Inhibition": -11, "Z score": 1.42}, {"smiles": "O=C(CC(c1ccccc1)c1ccccc1)N1CC(n2ccnn2)C1", "% Inhibition": -13, "Z score": 1.52}, {"smiles": "COC[C@@H]1CN(S(=O)(=O)c2ccccc2)C[C@H]1c1nc(C)no1", "% Inhibition": -16, "Z score": 2.76}, {"smiles": "CCc1ncc2c(n1)CN(C(=O)c1cc(C)c(-c3ccccc3)s1)C2", "% Inhibition": -5, "Z score": 0.84}, {"smiles": "CCS(=O)(=O)CCN(C)C(=O)Nc1c(C)cc(Cl)cc1C", "% Inhibition": 6, "Z score": -0.93}, {"smiles": "Cc1c(CNCc2cn(C(C)(C)C)nn2)cnn1C", "% Inhibition": -9, "Z score": 1.24}, {"smiles": "Cc1nc(CC(=O)Nc2cn(C)nc2-c2ccco2)c(C)s1", "% Inhibition": -12, "Z score": 1.48}, {"smiles": "Cc1ccc2c(NC(=O)NC3CCN(c4cnccn4)CC3)cccc2n1", "% Inhibition": -5, "Z score": 0.75}, {"smiles": "CN(C)C(=O)O[C@H]1CCN(C(=O)c2sncc2Br)C1", "% Inhibition": 0, "Z score": -0.04}, {"smiles": "CC(C)(C)OC(=O)N1CCC[C@@]2(CCN2C(=O)c2ncccc2O)C1", "% Inhibition": -9, "Z score": 1.24}, {"smiles": "c1ccc(-c2n[nH]c(C3CCN(c4nccn5nnnc45)CC3)n2)cc1", "% Inhibition": -8, "Z score": 1.25}, {"smiles": "CNC(=O)c1nnsc1N1CC(C)OC(C)C1", "note": "(stereo not drawn)", "% Inhibition": -6, "Z score": 0.84}, {"smiles": "CC(C)(C)c1ncc(CNc2ccc(F)c(F)c2)cn1", "% Inhibition": -4, "Z score": 0.34}, {"smiles": "CC[C@H]1CN(C(=O)c2cccc(-c3nccc(OC)n3)c2)CCN1C(C)C", "% Inhibition": -9, "Z score": 1.12}, {"smiles": "Cc1c(CC(=O)N[C@H]2CC[C@H](O)CC2)c2c(n1Cc1ccccc1)CCCC2=O", "% Inhibition": 2, "Z score": -0.4}, {"smiles": "COCc1cc(=O)[nH]c2cc(NC(=O)Cc3c(C)noc3C)ccc12", "% Inhibition": -16, "Z score": 2.28}, {"smiles": "O=C([C@@H]1COc2ccccc2C1)N1CCCN(CC(F)F)CC1", "% Inhibition": -3, "Z score": 0.39}, {"smiles": "CCOc1ccc(C2c3[nH]c4ccccc4c3C[C@H]3C(=O)N(C4CCN(Cc5ccccc5)CC4)CC(=O)N23)cc1OC", "note": "(stereo partly drawn)", "% Inhibition": 79, "Z score": -7.03}, {"smiles": "CNc1ccc(C)cc1CNc1cccc([C@@H]2CCC(=O)N2)c1", "% Inhibition": -11, "Z score": 2.04}, {"smiles": "COC(=O)c1cc(-c2ccc(Cl)cc2)nc2c1c(C1CC1)nn2C", "% Inhibition": -11, "Z score": 1.26}, {"smiles": "Cc1cccc(OC[C@]2(CNCc3cccnc3)C[C@@H](O)[C@@H](O)C2)n1", "% Inhibition": -3, "Z score": 0.49}, {"smiles": "CCN1CCN(Cc2cccc(F)c2C(F)(F)F)C(=O)C1=O", "% Inhibition": 0, "Z score": 0.06}, {"smiles": "C[C@](N)(CCc1ccc(O)cc1)C(=O)O", "% Inhibition": -2, "Z score": 0.39}, {"smiles": "O=C(NCC1(c2cccs2)CCCCC1)c1ccc2c(c1)OCO2", "% Inhibition": -13, "Z score": 2.39}, {"smiles": "Cc1cc(=O)c(C(=O)Nc2ccnc(NC(=O)OC(C)(C)C)c2)c[nH]1", "% Inhibition": -2, "Z score": 0.38}, {"smiles": "CNC(=O)c1cc(Oc2ccccc2NC(=O)[C@H]2CC2(C)C)ccn1", "% Inhibition": 11, "Z score": -1.55}, {"smiles": "CC(=O)N[C@H](c1nc(-c2cc(N3CCN(C)CC3)ccn2)no1)C1CCCC1", "% Inhibition": -24, "Z score": 2.85}, {"smiles": "CC(C)Oc1cc(N(C)Cc2ncc[nH]2)nc(N)n1", "% Inhibition": -11, "Z score": 1.5}, {"smiles": "Cc1cnn(C[C@H](C)NCC(=O)NCc2ccccn2)c1", "% Inhibition": 4, "Z score": -0.77}, {"smiles": "O=S(=O)(c1cccnc1)N1CC[C@H](Oc2ccncc2Cl)C1", "% Inhibition": -6, "Z score": 1.14}, {"smiles": "CC(C)(C)OC1CC(NCC(=O)NCC2CC2)C1(C)C", "note": "(stereo not drawn)", "% Inhibition": -5, "Z score": 0.8}, {"smiles": "Cc1sc2ncnc(Oc3cccc4ccccc34)c2c1C", "% Inhibition": -7, "Z score": 1.23}, {"smiles": "Nc1ncccc1CN1CCC[C@H](C(=O)Cc2ccccc2)C1", "% Inhibition": -11, "Z score": 1.93}]}]}
